# Test results published in PubChem BioAssay AID686970 (National Center for Advancing Translational Sciences (NCATS), 2013).
# Among all 360,000 compounds or so, about 6,000 (1.7%) were called active. Inconclusive means that the source gave no clear call. Such entries were picked first, then a sample of the others. Calls come from the whole dose curve; as a rule, active = well fitted cell-killing curve with a large enough effect; inconclusive = small, poorly fitted or top-dose-only effect, or effect the other way; inactive = flat fitted curve, though single readings scatter. No potency is given beside an inconclusive call; the fits are too rough.
# Assay: qHTS for induction of synthetic lethality in tumor cells producing 2HG: qHTS for the HT-1080-NT fibrosarcoma cell line;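 note: NT is the 2HG producing partner of a matched IDH1 knockdown line; nearly all actives have a fitted effect of over 55% in size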;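 for activity, negative = less viability: 0% = DMSO-treated cells and -100% = media-only wells without cells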
# Details: HT-1080-NT fibrosarcoma viability, CellTiter-Glo ATP luminescence, 48 h; activity, negative = less viability: at 46.1 µM (top of the series) unless noted
# How it was run: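 Viability by CellTiter-Glo luminescence after 48 h compound exposure at 37C of HT-1080-NT cells (750/well, RPMI, 5% FBS). % activity scaled between DMSO wells and medium-only wells, then curve-fitted and categorized by curve class.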
# Potency is the fitted concentration of half-maximal effect; tags give direction and shape of the fitted curve.
SMILES,Potency,"activity, negative = less viability"
Cc1cc(O)ccc1N/C=C/c1onc(C)c1[N+](=O)[O-],active: 16.4 µM,
C=CC[C@@H](CC(=O)N(CCO)Cc1ccccc1)C(=O)N[C@H](COC(=O)[C@@H](CC=C)CC(=O)OC(C)(C)C)c1ccccc1,"inconclusive [cytotoxic, single point]",
Cc1ccc2nc(-c3ccco3)c(CC3CCCCC3)n2c1,"inconclusive [cytotoxic, single point]",
CCOC(=O)N1CCN(c2nc(-c3ccccc3)c3ccccc3n2)CC1,"inconclusive [rising, single point]",
COC(=O)C1=C(C)N(c2ccc(C)c(C)c2)/C(=C/c2ccco2)C1=O,,inconclusive: -14.9% [cytotoxic]
CN(C(=O)c1ccc(Br)o1)C1(C)CCS(=O)(=O)C1 (stereo not drawn),"inconclusive [rising, single point]",
CCOC(=O)c1ccc(NC(=O)CCc2nnc3ccc(N4CCCC4)nn23)cc1,,inactive: -5.45%
CC(=O)c1cccc(NC(=O)c2cccc3c(-c4cccc(C(N)=O)c4)coc23)c1,"inconclusive [cytotoxic, partial curve]",
O=C1C(=O)c2ccccc2C(O)=C1c1ccccc1F,,inactive: 7.44%
COc1ccccc1NC(=O)c1c(Nc2ccccc2C)sc(C(=O)Nc2cccc(Cl)c2)c1N,"inconclusive [cytotoxic, single point]",
O=C(CCSc1nnc2ccc3ccccc3n12)Nc1ccc(F)cc1,"inconclusive [cytotoxic, single point]",
COc1cc(-c2cnc3c(NC=O)cc(-c4cccc(NC(C)=O)c4)cn23)cc(OC)c1OC,"inconclusive [cytotoxic, full curve, poor fit]",
CC1CN(c2nc3ccccn3c(=O)c2/C=C(\C#N)C(N)=O)CC(C)O1 (stereo not drawn),"inconclusive [rising, single point]",
O=c1c(Cl)c(N2CCN(c3ccccc3)CC2)cnn1C12CC3CC(CC(C3)C1)C2,"inconclusive [cytotoxic, single point]",
COCCOC(=O)c1c(C)oc2ccc(OCc3cc(C(=O)OC)oc3C)cc12,"inconclusive [cytotoxic, partial curve, poor fit]",
COc1ccc(S(=O)(=O)NCC(c2ccc(C)cc2)N2CCN(C)CC2)cc1 (stereo not drawn),,inactive: -10.4%
Cc1ccc(C(=O)N2CCN(c3cccc(Cl)c3)CC2)cc1C,"inconclusive [cytotoxic, single point]",
CO/N=C/C(C#N)c1ncc(C(F)(F)F)cc1Cl (stereo not drawn),"inconclusive [cytotoxic, single point]",
